About 50,000 (12%) of roughly 420,000 compounds were called active. Inconclusive means that the source gave no clear call. Such entries were picked first, then a sample of the others. Calls follow the shape of the dose curve; as a rule, active = well fitted inhibition curve with a large enough effect; inconclusive = small, poorly fitted or top-dose-only effect; inactive = flat fitted curve, though single readings scatter. Potencies of inconclusive entries are left out as doubtful fits.
Assay: qHTS for Inhibitors of human tyrosyl-DNA phosphodiesterase 1 (TDP1): qHTS in cells in presence of CPT; also: nearly all actives have a fitted effect of over 55% in size
Settings: chicken DT40 Tdp1-/-;hTDP1 cells + 20 nM CPT, ATP luminescence, 48 h; activity change, negative = growth inhibition: at 46.2 µM (top of the series) unless noted
In short: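 Cell growth measured by CellTiter-Glo luminescence after a minimum 48 h, 37 C compound exposure with 20 nM CPT in Tdp1-knockout DT40 cells stably expressing hTDP1, seeded 400/well; qHTS titration format.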
% is scaled to controls: 0 for no effect and ±100 for the full control effect; potency is read from the fitted curve at half-maximal effect; tags tell the direction and shape of the fitted curve.

SMILES	Potency	activity change, negative = growth inhibition
O=C(CSc1nnc(SCc2ccc(Cl)cc2)s1)N/N=C/c1c[nH]c2ccccc12	inconclusive [inhibitor, partial curve]	–
Nc1nc(-c2ccccc2)nc(-c2ccccc2O)n1	inconclusive [inhibitor, single point]	–
O=C(CSc1nc2ccc(Nc3nc(N4CCOCC4)nc(N4CCOCC4)n3)cc2s1)NCc1ccco1	active: 25.9 µM	–
Brc1ccc(-c2nc3c4ccccc4ccn3c2Cc2ccccc2)cc1	active: 16.4 µM	–
O=c1c(-c2ccccc2)nc2cnc(Oc3ccccc3)nc2n1C[C@H]1CCCO1	inconclusive [inhibitor, single point]	–
COc1ccccc1CCNC(=O)NC1CCCCC1	inactive	–
CCCCN(CCCNC(=O)CN1N=C(c2ccccc2)CCC1=O)c1ccccc1	inconclusive [inhibitor, single point]	–
Cc1nc2cc(NC(=O)[C@@H]3C[C@@H](Sc4ccccn4)CN3Cc3cccc(F)c3)ccc2s1	–	inactive: 15.5% [at 9.04 µM]
O=C(Nc1ccc2c(c1)OCCO2)c1oc2ccccc2c1NC(=O)C1CC1	inconclusive [inhibitor, single point]	–
C=CCN1C(=O)c2ccc(C(=O)N3CCN(S(=O)(=O)c4ccc(C(C)C)cc4)CC3)cc2C1=O	inactive	–
Oc1ccc2c(c1)c1ccccc1c1ncccc21	inconclusive [inhibitor, single point]	–
COc1cccc(NC(=O)N(C)C[C@H]2Oc3cc(C#Cc4ccncc4)ccc3S(=O)(=O)N([C@H](C)CO)C[C@H]2C)c1	active: 16.4 µM	–
CC(C)CN(C(=O)CN(C)C(=O)Cc1c(F)cccc1Cl)c1c(N)n(CC(C)C)c(=O)[nH]c1=O	inactive	–
O=C(Cc1c(Cl)cccc1Cl)Nc1cccnc1	inconclusive [inhibitor, single point]	–
COc1ccc(CNC(=O)C[C@H]2C[C@H](C(=O)N3CCOCC3)[C@@]3(CCC4CCCC4)c4[nH]c5ccc(Cl)cc5c4CCN3C2=O)cc1OC	active: 16.4 µM	–
Cc1ccc(Sc2c([N+](=O)[O-])c(=O)n(C)c3ccccc23)cc1	active: 14.6 µM	–
COc1ccc(/C=c2\[nH]c(=O)/c(=C/c3ccc(OC)c(OC)c3)[nH]c2=O)cc1OC	inactive	–
O=C(COc1ccccc1Cl)Nc1nc2c(s1)CCCC2	active: 8.2 µM	–
O=C(CSc1nc(C2CCCCC2)nc2ccccc12)NCc1ccc2c(c1)OCO2	inconclusive [inhibitor, single point]	–
O=[N+]([O-])c1ccc(CN2CCN(Cc3c[nH]c4ccccc34)CC2)cc1	inconclusive [inhibitor, single point]	–
NC(=O)Cn1cc(/C=N\NS(=O)(=O)c2ccccc2)c2ccccc21	inactive	–
CN(C)c1ccc(C=NNc2nc3c([nH]2)c(=O)n(C)c(=O)n3C)cc1	inconclusive [inhibitor, partial curve]	–
CCCCNC(=O)N1CCCC(C(=O)c2cc(C)c(OC)c(C)c2)C1 (configuration not stated)	inconclusive [inhibitor, single point]	–
CC(C)Sc1nc2c(c(=O)n(C)c(=O)n2C)n1Cc1ccc(Cl)cc1	inconclusive [inhibitor, single point]	–

SMILES	Potency	activity change, negative = growth inhibition
C=CCn1c(SCc2nc3cc(C(F)(F)F)ccc3c(=O)[nH]2)nc2sc(CC)cc2c1=O	inconclusive [inhibitor, single point]	–
COc1nc(N)nc(N)c1NS(=O)(=O)c1ccc(C)cc1	inactive	–
O=C(Nc1cccc(NC(=O)c2ccc3c(c2)OCO3)c1)c1ccccc1	inactive	–
c1ccc2c(CN3CCOCC3)csc2c1	inactive	–
O=S(=O)(c1ccc(F)c2ccccc12)N1CCCCC1	inactive	–
COc1ccc(CCNC(=O)C2CCN(c3nn4c(=O)cc(C)nc4s3)CC2)cc1OC	inactive	–
O=C(c1[nH]c(C(F)(F)F)nc1-c1ccccc1)N1CCN(c2ccccn2)CC1	inconclusive [inhibitor, single point]	–
Cc1cccc(NC(=O)C2CCCN(S(=O)(=O)c3cccc4nonc34)C2)c1C (configuration not stated)	inconclusive [inhibitor, single point]	–
Cc1cc(OCCOCCN(C)CCO)cc(C)c1Cl	inconclusive [inhibitor, partial curve]	–
Cc1cc2oc(=O)cc(CN(C)Cc3ccccc3)c2cc1Cl	inactive	–
C[C@@H]1CN([C@H](C)CO)S(=O)(=O)c2ccc(C#Cc3ccccc3F)cc2O[C@H]1CN(C)C(=O)c1ccc2c(c1)OCO2	active: 18.4 µM	–
Clc1ccc2c(c1)C(N1CCNCC1)Cc1ccccc1S2 (configuration not stated)	inconclusive [inhibitor, single point]	–
Cc1cc(=O)oc2cc(O)cc(OCc3ccccc3)c12	inconclusive [inhibitor, single point]	–
N=c1oc2ccccc2cc1C(=O)NC1CCCCCC1	inactive	–
CCCCC(CC)CNC(=O)C(=O)C1C(=O)Nc2ccccc21 (configuration not stated)	inconclusive [inhibitor, partial curve, poor fit]	–
CC(C)(C)c1ccc(C(=O)Nc2ccc3c(c2)C(=O)NC3=O)cc1	inactive	–
CN(C)c1ccc(/C=C/c2nc3ccccc3c(=O)[nH]2)cc1	active: 20.6 µM	–
COc1cc(OC)c2c(-c3ccccc3)cc(=O)oc2c1C(CCN1CCCCC1)c1ccc(N(C)C)cc1 (configuration not stated)	active: 10.3 µM	–
Cc1cc(C(=O)O)c2c(=O)n(C)c(=O)n(C)c2n1	inactive	–
CN(C)c1nc(-c2cccs2)cc(C(F)(F)F)c1C#N	inactive	–
CN1CC(c2ccc(Cl)c(Cl)c2)[C@@]2(COc3ccccc3C2=O)[C@@]12C(=O)Nc1ccccc12 (some centres not stated)	active: 18.4 µM	–
COc1cccc(OCC(O)CN2CCC(Cc3ccccc3)CC2)c1 (configuration not stated)	inconclusive [inhibitor, single point]	–
CC1(C)CC(=O)C(C(=O)c2ccccc2)C(=O)C1Cl (configuration not stated)	inactive	–
CCc1nnc(NC(=O)c2cc(-c3ccc(C)o3)nc3ccccc23)s1	inconclusive [inhibitor, single point]	–

SMILES	Potency	activity change, negative = growth inhibition
CCC(=O)N(Cc1cc2c(C)ccc(C)c2[nH]c1=O)C1CCCCC1	inconclusive [inhibitor, single point]	–
Cc1cccc(N2CCN(C(=O)c3cn(C4CCCCC4)c(=O)c4c3c3ccccc3n4C)CC2)c1C	inconclusive [inhibitor, single point]	–
COc1cccc(-c2sc3ccc(OC)cc3c2C#CCC(C)O)c1 (configuration not stated)	inconclusive [inhibitor, single point]	–
C=CCn1c(SCC(=O)NC(=O)c2cccc([N+](=O)[O-])c2)nnc1-c1ccccc1	inactive	–
Cc1ccc(C)c(-c2nnc(NC(=O)CCS(=O)(=O)c3ccc(F)cc3)o2)c1	inconclusive [inhibitor, single point]	–
COc1cccc(CNS(=O)(=O)c2cc3c(cc2Cl)NC(=O)CO3)c1	inactive	–
CCCCN(C)CCCNC(=O)c1ccc2nc(N3CCCCC3)sc2c1	active: 23.1 µM	–
O=C(Nc1c(F)cc(F)cc1Br)c1cc(-c2ccc(O)cc2)on1	inconclusive [inhibitor, partial curve]	–
CCN(C(=O)CCc1nc(-c2ccc(C)cc2)no1)c1cc(C)ccc1C	active: 18.4 µM	–
CC1CCc2sc(C(=O)OCC(=O)NCc3ccccc3)cc2C1 (configuration not stated)	active: 20.6 µM	–
COc1cccc(C(=Cc2ccc([N+](=O)[O-])cc2)C(=O)O)c1	inconclusive [inhibitor, single point]	–
C=CCOc1ccc(/C=C/C(=O)OCC(=O)N2CCC(c3ccccc3)=N2)cc1	inconclusive [inhibitor, partial curve]	–
O=C(CCNC(=O)c1ccc(Br)cc1)Nc1cccc(S(=O)(=O)N2CCCCCC2)c1	active: 13 µM	–
COc1ccc(C(=O)N2CCC3(CC2)CCN(c2ccccc2)CC3)cc1	inconclusive [inhibitor, single point]	–
Cc1nc(Nc2cccc(O)c2)c2c3c(sc2n1)CCC3	active: 18.4 µM	–
Cc1[nH]c2ccccc2c1-c1nc2ccccc2[nH]1	inconclusive [inhibitor, single point]	–
COC(=O)[C@]12CCCCC=C1N(Cc1ccco1)C(=O)[C@H](CC(=O)N1CCN(C(=O)c3ccco3)CC1)C2	inactive	–
COc1ccc(NC(=O)N(C)C[C@H]2Oc3c(NC(=O)Nc4ccc5c(c4)OCO5)cccc3C(=O)N([C@H](C)CO)C[C@@H]2C)cc1	inconclusive [inhibitor, single point]	–
COc1ccc(C2=Nn3c(nnc3-c3ccco3)SC2)cc1OC	inconclusive [inhibitor, single point]	–
N#CC1=C(N)N(c2ccccc2)C(c2ccco2)C1(C#N)C#N (configuration not stated)	inconclusive [inhibitor, single point]	–
Cc1cccc(OCCSc2nc3ccccc3n2CC(=O)N2CCCCC2)c1C	inconclusive [inhibitor, single point]	–
CCOc1cccc(-c2nc3c(s2)CCc2onc(-c4cccc([N+](=O)[O-])c4)c2-3)c1	–	inconclusive: -24.2% [inhibitor]
O=C(Nn1cnnc1)c1csc2ccccc12	inactive	–
COc1ccc(C2=NO[C@@H]3[C@@H]4C[C@@H]([C@H]5C(=O)N(C)C(=O)[C@@H]45)[C@H]23)c(OC)c1	inactive	–

Source: PubChem BioAssay AID686979 (National Center for Advancing Translational Sciences (NCATS), 2013)
